The values below come from patent US12116397B2, “IL-IR-I binding polypeptide” (Swedish Orphan Biovitrum AB (publ), dated 2024).

The target of the assay is human IL-1R-I on Normal Human Dermal Fibroblasts (NHDF) cells (human, UniProt P14778). As to the kind of experiment: cell-based or functional assay.

B1: PSI0538 (Fc fusion)
chain: AEAKYAKELEAIQMEIFHLPNLTRRQYTAFIRKLLDDPSQSSELLSEAKKLSESQAPKASGGGGSGGGGS[sequence of human IgG1 Fc omitted]
Take B1: the “IC50 of inhibition of IL-1β induced IL-6 release in NHDF cells” value came to 0.07 nM.
